# Article PMC7819943, “Rice protein-binding microarrays: a tool to detect cis-acting elements near promoter regions in rice”
# Some of the results follow.
# Biological target: T1, OsWOX13 (Oryza sativa, UniProt Q5QMM3 1-267)
# T1 sequence: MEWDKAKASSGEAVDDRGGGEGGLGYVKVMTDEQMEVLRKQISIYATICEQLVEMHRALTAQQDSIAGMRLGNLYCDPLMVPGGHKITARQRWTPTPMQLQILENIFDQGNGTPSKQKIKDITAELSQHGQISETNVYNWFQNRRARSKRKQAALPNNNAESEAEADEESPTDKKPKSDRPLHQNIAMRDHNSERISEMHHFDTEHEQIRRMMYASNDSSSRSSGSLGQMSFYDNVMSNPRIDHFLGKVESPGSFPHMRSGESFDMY
# Experiment: protein-binding microarray (RPBM); PBS, 2% BSA, 51.3 ng/ul salmon testes DNA, 50 uM zinc acetate, 200 nM TF, 25 C, 1 h; high values mean tight binding
# Conditions: protein: recombinant; tags: N-terminal polyhistidine and DsRed monomer fusion (pET32a); label: CyDye5-dUTP incorporated in the synthesized complementary strand; 3' TTTTT single-stranded linker to array surface; dsDNA, one strand shown
# In short: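 The binding signal for each feature is its fluorescence intensity in arbitrary units. An Axon 4000B scanner was used to read a custom Agilent array that had been made double-stranded with Cy5-dUTP primer extension, blocked with 2% BSA, incubated at 25 °C for 1 h with 200 nM protein in PBS, 2% BSA, salmon testes DNA and 50 µM zinc acetate, and washed. The protein was an N-terminal polyhistidine–DsRed transcription factor fusion from E. coli BL21-CodonPlus, purified on Ni–NTA.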
row,Sequence,binding signal
1,TGGAATGGGTTTTGTAATTAGTGGATATTTAATACCCCAACGGAGTCACCTAGTGCAG,3440 fluorescence intensity (a.u.)
2,TTTGGTTGTTATTGATACATTTGACAAAATATATTTGGGACGGAGTCACCTAGTGCAG,5110 fluorescence intensity (a.u.)
3,AAACTTGTTAATTATCAGGAAAACTTTGGCATTTTACATGCGGAGTCACCTAGTGCAG,12300 fluorescence intensity (a.u.)
4,TATATTGGTCGATTAATTAAAGACGCAATTACATAATATTCGGAGTCACCTAGTGCAG,5860 fluorescence intensity (a.u.)
5,CAAACGGCGTATAACTGACAGACTGTGGACGGCGATGATACGGAGTCACCTAGTGCAG,3520 fluorescence intensity (a.u.)
6,ACGCTATAAAATTGATCATATATTGAAGGACGAAACAAATCGGAGTCACCTAGTGCAG,4380 fluorescence intensity (a.u.)
7,CCTTCGATTATTGGCACGGATTGTTTATCCAGGTAAGACTCGGAGTCACCTAGTGCAG,13300 fluorescence intensity (a.u.)
8,AGTTTCCTAATCTATTATATGATAGTACTCGGTCGGAGCTCGGAGTCACCTAGTGCAG,3210 fluorescence intensity (a.u.)
9,AGGGAGAATTGATTATCAGCATGGCAATGGAGGAACATGCCGGAGTCACCTAGTGCAG,21600 fluorescence intensity (a.u.)
10,TGAAATTAAATCTGACGAATTAATGCTGAATTGTAGCTGCCGGAGTCACCTAGTGCAG,26000 fluorescence intensity (a.u.)
11,CGCATTGTACTAATTAATGACAGGAATGAGGATTATTATGCGGAGTCACCTAGTGCAG,15400 fluorescence intensity (a.u.)
12,ATTTAAATTTGAATTTGAATTCAAATATTTTCCATATATACGGAGTCACCTAGTGCAG,7130 fluorescence intensity (a.u.)
13,CCACTGGATTGAGGATTGCTTGAATTGACCATCAGATTTGCGGAGTCACCTAGTGCAG,13200 fluorescence intensity (a.u.)
14,GACAAATATAATTACACCGTATAGTATTAATGTTTTGGTCCGGAGTCACCTAGTGCAG,9100 fluorescence intensity (a.u.)
15,CAAATCAATCTTATTTAGATTTCTGATATGTTTACTGAACCGGAGTCACCTAGTGCAG,22600 fluorescence intensity (a.u.)
16,ATTACTGATAATTTCCTATACAGATGATGTAGGAAACACACGGAGTCACCTAGTGCAG,11300 fluorescence intensity (a.u.)
17,TCCTAATTTCACACCGTCTCTTCCTTGTAACCATCTGAAACGGAGTCACCTAGTGCAG,6600 fluorescence intensity (a.u.)
18,GCAAATTGCCACGTAAGCGCCACGTCAGATCGAGACCGAGCGGAGTCACCTAGTGCAG,4790 fluorescence intensity (a.u.)
19,GATAATTGACAAGATTGAACCATATGTGATGTATTATTTCCGGAGTCACCTAGTGCAG,53200 fluorescence intensity (a.u.)
20,CTGATGGATAATAACACAAGCATCCATCAAGCCACTTGCTCGGAGTCACCTAGTGCAG,14700 fluorescence intensity (a.u.)
21,CCATTCCATTAATCCATTGATAGCAACAGGGGTTATATTGCGGAGTCACCTAGTGCAG,5680 fluorescence intensity (a.u.)

row,Sequence,binding signal
1,ATTCCTAATTTTAGTTATTCCTAAAATGTATATCGGTATGCGGAGTCACCTAGTGCAG,6790 fluorescence intensity (a.u.)
2,CACAGATTATTCTCATCCATTAACACCACTTCTCATCTGACGGAGTCACCTAGTGCAG,3480 fluorescence intensity (a.u.)
3,GCGATGATCGTGATTTCTCTCCCATAACCATATCGTACCACGGAGTCACCTAGTGCAG,6010 fluorescence intensity (a.u.)
4,CTTAAAACAAATGATTGTTTACGTTCCGTCAATCATGCCCCGGAGTCACCTAGTGCAG,21200 fluorescence intensity (a.u.)
5,ATGCAATAAATCATAAAATTATACATCTTAGTGAATCACACGGAGTCACCTAGTGCAG,3660 fluorescence intensity (a.u.)
6,TGATCTAATTGAATGTCAACCCCTACTATATATATCTTACCGGAGTCACCTAGTGCAG,26000 fluorescence intensity (a.u.)
7,TAAGAAATTAAATCACATTGGATGTTAATCAAAGAGCGAACGGAGTCACCTAGTGCAG,6260 fluorescence intensity (a.u.)
8,ATCTCCTCAATCACCTTATCGTCAAACTCACCTTTAGTGACGGAGTCACCTAGTGCAG,11700 fluorescence intensity (a.u.)
9,CATGACATATATCATTACTACCATTTGTTTATATAGAATGCGGAGTCACCTAGTGCAG,9170 fluorescence intensity (a.u.)
10,TTCAATTGATTATGAACTGCTTGTACTCTAATCAATGGTACGGAGTCACCTAGTGCAG,55800 fluorescence intensity (a.u.)
11,ACCAGATTACTTTCATTAAATCTACGACCGAATAATATATCGGAGTCACCTAGTGCAG,3460 fluorescence intensity (a.u.)
12,TTTAGATTTATTGTACTACGAAGTGTCTCGTCTGTTATAGCGGAGTCACCTAGTGCAG,6560 fluorescence intensity (a.u.)
13,CATTTGATCTAGCCGATTGGTAGTTAATAAAAGTCAAAATCGGAGTCACCTAGTGCAG,4270 fluorescence intensity (a.u.)
14,CTGTAATTAAGCTTTGATGCTCTGACTTGACTGTTTCCGTCGGAGTCACCTAGTGCAG,18800 fluorescence intensity (a.u.)
15,ATTAATTGCCACATTTCAATCGAAACAAGCTACTATTCTCCGGAGTCACCTAGTGCAG,19800 fluorescence intensity (a.u.)
16,CCATATTAAACTCATCATTAATTCCCTTTAAACTCTCCATCGGAGTCACCTAGTGCAG,3620 fluorescence intensity (a.u.)
17,CCATTAAATGCACAATGACACAATTTGAGGATCAGTTTAGCGGAGTCACCTAGTGCAG,3340 fluorescence intensity (a.u.)
18,ACATTAACTGCACTTAATGAGGATGAACTATATAAGTATTCGGAGTCACCTAGTGCAG,11100 fluorescence intensity (a.u.)
19,ACTAGATATGGGCAAACTAATTAGCTTATAATGAAATGATCGGAGTCACCTAGTGCAG,4040 fluorescence intensity (a.u.)
20,ACGTAATGTGTGTATGACAGGTAAGATTAGGTATTAATAGCGGAGTCACCTAGTGCAG,13500 fluorescence intensity (a.u.)
21,GTGTTTATAATTATCAAAATGAAATAAAAGGATTGCTGCACGGAGTCACCTAGTGCAG,11100 fluorescence intensity (a.u.)
